In PubChem BioAssay (NCATS):
The inconclusive results got no clear call from the source; some entries with a clear call stand among them for comparison. Potencies of inconclusive entries are doubtful fits and often do not repeat. Active and inactive are the calls of the source. Calls follow the shape of the dose curve; as a rule, active = well fitted curve in the direction sought with a large enough effect; inconclusive = small, poorly fitted or top-dose-only effect, or another doubt; inactive = no such curve, though single readings can be large; an effect the other way counts as inactive or inconclusive.

assay: qHTS Screen of the MIPE 4.0 Collection Against Ewings Sarcoma (EW8) (AID 1259255); conditions: EW8 Ewing sarcoma viability, CellTiter-Glo, 48 h; series mostly up to 45.8 µM; viability: at the top concentration; also: nearly all actives have a fitted effect of over 35% in size
Outline: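 Viability screen: 48 h incubation at 37C, 95% humidity, 5% CO2 with serially titrated compound, followed by CellTiter-Glo readout.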
Potency is read from the fitted curve at half-maximal effect; tags tell the direction and shape of the fitted curve.

Row | SMILES | Potency
1 | CCN(CC)CCCCNc1ncc2cc(-c3cc(OC)cc(OC)c3)c(NC(=O)NC(C)(C)C)nc2n1 | active: 18700 nM
2 | CCC(C)(C)C(=O)O[C@H]1C[C@@H](C)C=C2C=C[C@H](C)[C@H](CC[C@@H]3C[C@@H](O)CC(=O)O3)[C@H]21 | active: 18700 nM
3 | O=C(c1cc(Cc2n[nH]c(=O)c3ccccc23)ccc1F)N1CCN(C(=O)C2CC2)CC1 | inconclusive: 18700 nM [inhibitor, partial curve]

assay: Identifying Small Molecule Inhibitors of Pancreatic Cancer Stem Cells (A2780, Spheroid) (AID 1259357); conditions: Potency: A2780 spheroid viability unless noted; viability (percent of control): at 46.1 µM (top of the series) unless noted;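 also: compound exposure lasted 48 h before the ATP luminescence read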;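 as to viability (percent of control): 100% = DMSO treated cells and 0% = wells without cells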
Outline: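 Cytotoxicity read by CellTiter-Glo luminescence after 48 h compound exposure at 37C; percent activity scaled between DMSO-treated cells and cell-free wells. Spheroid formats used cells pre-formed 14 days in stem cell media on hydrogel.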

Row | SMILES | Potency | viability (percent of control)
4 | Cc1ccc(C(N)=O)cc1Nc1nccc(-c2cn(C(C)C)c3cnccc23)n1 | inconclusive: 14800 nM [cytotoxic, partial curve] | 
5 | CC(C)C[C@H](NC(=O)[C@@H](O)[C@H](N)Cc1ccccc1)C(=O)O | inconclusive: 469 nM [cytotoxic, full curve, poor fit] | 
6 | CC[C@@H]1C(=O)N(C)c2cnc(Nc3ccc(C(=O)NC4CCN(C)CC4)cc3OC)nc2N1C1CCCC1 |  | inactive: 67.4%
7 | C[C@@H](Oc1cc(-c2cnn(C3CCNCC3)c2)cnc1N)c1c(Cl)ccc(F)c1Cl | inconclusive: 11800 nM [cytotoxic, full curve, poor fit] | 
8 | Cc1ccc(C(=O)N(CCCN)[C@@H](c2nc3cc(Cl)ccc3c(=O)n2Cc2ccccc2)C(C)C)cc1 | inconclusive: 1.2 nM [cytotoxic, full curve, poor fit] | 
9 | Cc1c(C)c2c(c(C)c1O)CCC(C)(COc1ccc(CC3SC(=O)NC3=O)cc1)O2 (centres undefined) |  | inconclusive: 126%
10 | CCOc1cc(C=C2C(=O)N(c3ccccc3)N=C2C)cc(Cl)c1OCC(=O)OC | inconclusive: 5900 nM [rising, single point] | 
11 | OCCn1cc(-c2cnc3nnn(Cc4ccc5ncccc5c4)c3n2)cn1 | inconclusive: 264 nM [cytotoxic, full curve, poor fit] | 
12 | CCN1CCN(CC(=O)Nc2ccc(-c3cccc4c(=O)cc(N5CCOCC5)oc34)c3sc4ccccc4c23)CC1 | inconclusive: 14.8 nM [rising, full curve, poor fit] | 
13 | COc1ccccc1[C@H](c1cccc2ccccc12)[C@@](C)(C#N)C(=O)N1CCC(c2cccc(C(F)(F)F)c2)CC1 | inconclusive: 14800 nM [cytotoxic, partial curve, poor fit] | 
14 | Cc1cc2c(C(C)C)c(O)c(O)c(C=O)c2c(O)c1-c1c(C)cc2c(C(C)C)c(O)c(O)c(C=O)c2c1O | inconclusive: 29600 nM [cytotoxic, single point] | 
15 | Cc1cc(SCc2sc(-c3ccc(C(F)(F)F)cc3)nc2C)ccc1OCC(=O)O |  | inactive: 91.4%
16 | C[C@@H](N)C1CCC(C(=O)Nc2ccncc2)CC1 (some centres undefined) | inconclusive: 1.5 nM [rising, full curve, poor fit] | 
17 | Clc1ccc(Nc2nnc(Cc3ccncc3)c3ccccc23)cc1 | inconclusive: 4.2 nM [rising, full curve, poor fit] | 
18 | Cc1ccc(S(=O)(=O)Nc2cc(Cl)ccc2C(=O)Nc2nc(-c3ccccc3)cs2)cc1 | inconclusive: 2090 nM [cytotoxic, full curve] | 
19 | CC(C)Oc1cc(Nc2nc(N[C@@H](C)c3ccc(F)cn3)ncc2Cl)[nH]n1 | inconclusive: 16600 nM [cytotoxic, partial curve] | 
20 | CN1CC[C@@H](c2c(O)cc(O)c3c(=O)cc(-c4ccccc4Cl)oc23)[C@@H](O)C1 | active: 74.3 nM | 
21 | COc1cc2c(Oc3ccc4[nH]c(C)cc4c3F)ncnc2cc1OCCCN1CCCC1 | inconclusive: 1.7 nM [rising, full curve, poor fit] | 
22 | COC(=O)c1ccc2c(C(=Nc3ccc(N(C)C(=O)CN4CCN(C)CC4)cc3)c3ccccc3)c(O)[nH]c2c1 | inconclusive: 5260 nM [cytotoxic, partial curve, poor fit] | 
23 | CCn1c(-c2nonc2N)nc2cnc(Oc3cccc(NC(=O)c4ccc(OCCN5CCOCC5)cc4)c3)cc21 |  | inconclusive: 69.9%
24 | CCc1cc(Nc2nccc(-c3c(-c4ccc(OC)c(C(=O)Nc5c(F)cccc5F)c4)nc4ccccn34)n2)c(OC)cc1N1CCC(N2CCN(S(C)(=O)=O)CC2)CC1 |  | inconclusive: 85.9%
25 | Cc1nn(Cc2ccccc2Cl)c(C)c1CN(C)CC(O)COc1ccc(Cl)cc1 (centres undefined) | inconclusive: 59 nM [rising, full curve, poor fit] | 
26 | Cc1nc2cnc3ccc(C#Cc4cccnc4)cc3c2n1-c1ccc(C(C)(C)C#N)cc1 | active: 1870 nM | 
27 | CCN(CC)CCCCNc1ncc2cc(-c3cc(OC)cc(OC)c3)c(NC(=O)NC(C)(C)C)nc2n1 |  | inconclusive: 115%
28 | CCC(C)(C)C(=O)O[C@H]1C[C@@H](C)C=C2C=C[C@H](C)[C@H](CC[C@@H]3C[C@@H](O)CC(=O)O3)[C@H]21 |  | inconclusive: 75.6% [at 15.4 µM]
29 | O=C(c1cc(Cc2n[nH]c(=O)c3ccccc23)ccc1F)N1CCN(C(=O)C2CC2)CC1 | inconclusive: 833 nM [cytotoxic, full curve, poor fit] | 
